Reference: PMC6879585
These are yes or no findings as the source states them, for the method shown. For some assays here: In cells and extracts the contact can be indirect. Some entries that bind do so weakly or less than the wild type. Values belong to the substance of their own block, whether it stands above or below them.

By UniProt entry, the sequences of proteins in these tests, tags left out. Where a name states a change or a piece, a line headed by the entry shows the natural chain unless it says otherwise.
UniProt Q6R327: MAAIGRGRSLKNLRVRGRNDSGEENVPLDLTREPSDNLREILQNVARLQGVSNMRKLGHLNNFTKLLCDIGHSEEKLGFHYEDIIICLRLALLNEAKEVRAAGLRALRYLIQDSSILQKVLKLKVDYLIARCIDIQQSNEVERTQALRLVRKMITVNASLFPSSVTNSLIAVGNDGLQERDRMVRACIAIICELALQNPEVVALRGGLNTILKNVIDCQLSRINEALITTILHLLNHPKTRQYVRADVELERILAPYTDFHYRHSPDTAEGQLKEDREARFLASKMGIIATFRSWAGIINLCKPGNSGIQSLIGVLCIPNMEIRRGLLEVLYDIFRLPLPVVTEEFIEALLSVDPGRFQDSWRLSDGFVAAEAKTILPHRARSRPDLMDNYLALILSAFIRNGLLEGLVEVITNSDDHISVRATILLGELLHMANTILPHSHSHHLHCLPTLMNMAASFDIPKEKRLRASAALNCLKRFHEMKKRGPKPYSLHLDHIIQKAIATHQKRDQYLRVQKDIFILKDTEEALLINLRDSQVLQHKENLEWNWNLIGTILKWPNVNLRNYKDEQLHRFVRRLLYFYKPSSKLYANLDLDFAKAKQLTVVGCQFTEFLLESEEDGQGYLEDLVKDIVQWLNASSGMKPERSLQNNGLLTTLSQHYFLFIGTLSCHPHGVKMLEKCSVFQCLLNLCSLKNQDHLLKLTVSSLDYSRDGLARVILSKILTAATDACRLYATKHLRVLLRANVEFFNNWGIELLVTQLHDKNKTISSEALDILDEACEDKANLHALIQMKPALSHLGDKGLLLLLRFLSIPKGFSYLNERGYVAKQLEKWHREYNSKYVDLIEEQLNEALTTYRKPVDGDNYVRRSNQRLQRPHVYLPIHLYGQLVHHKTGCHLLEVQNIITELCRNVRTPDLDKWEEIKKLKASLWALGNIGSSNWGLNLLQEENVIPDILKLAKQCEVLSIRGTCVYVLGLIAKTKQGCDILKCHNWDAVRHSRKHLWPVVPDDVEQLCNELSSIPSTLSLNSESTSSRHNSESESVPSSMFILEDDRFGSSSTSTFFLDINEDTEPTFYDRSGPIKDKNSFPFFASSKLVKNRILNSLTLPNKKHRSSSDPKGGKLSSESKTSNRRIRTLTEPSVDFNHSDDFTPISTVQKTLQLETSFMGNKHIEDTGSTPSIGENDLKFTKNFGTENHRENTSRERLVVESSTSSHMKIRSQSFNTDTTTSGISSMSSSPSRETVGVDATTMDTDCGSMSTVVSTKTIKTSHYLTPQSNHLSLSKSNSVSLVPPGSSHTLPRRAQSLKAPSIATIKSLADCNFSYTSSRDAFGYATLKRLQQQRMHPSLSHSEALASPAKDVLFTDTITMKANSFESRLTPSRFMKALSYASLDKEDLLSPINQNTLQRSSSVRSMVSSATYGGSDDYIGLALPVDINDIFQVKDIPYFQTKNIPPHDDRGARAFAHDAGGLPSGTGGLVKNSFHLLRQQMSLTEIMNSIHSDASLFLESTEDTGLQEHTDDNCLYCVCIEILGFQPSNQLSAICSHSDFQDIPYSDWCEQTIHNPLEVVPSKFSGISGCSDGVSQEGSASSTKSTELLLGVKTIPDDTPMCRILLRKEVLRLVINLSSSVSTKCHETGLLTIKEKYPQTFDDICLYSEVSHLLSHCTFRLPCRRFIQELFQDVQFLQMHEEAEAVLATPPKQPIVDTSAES
UniProt Q8N122: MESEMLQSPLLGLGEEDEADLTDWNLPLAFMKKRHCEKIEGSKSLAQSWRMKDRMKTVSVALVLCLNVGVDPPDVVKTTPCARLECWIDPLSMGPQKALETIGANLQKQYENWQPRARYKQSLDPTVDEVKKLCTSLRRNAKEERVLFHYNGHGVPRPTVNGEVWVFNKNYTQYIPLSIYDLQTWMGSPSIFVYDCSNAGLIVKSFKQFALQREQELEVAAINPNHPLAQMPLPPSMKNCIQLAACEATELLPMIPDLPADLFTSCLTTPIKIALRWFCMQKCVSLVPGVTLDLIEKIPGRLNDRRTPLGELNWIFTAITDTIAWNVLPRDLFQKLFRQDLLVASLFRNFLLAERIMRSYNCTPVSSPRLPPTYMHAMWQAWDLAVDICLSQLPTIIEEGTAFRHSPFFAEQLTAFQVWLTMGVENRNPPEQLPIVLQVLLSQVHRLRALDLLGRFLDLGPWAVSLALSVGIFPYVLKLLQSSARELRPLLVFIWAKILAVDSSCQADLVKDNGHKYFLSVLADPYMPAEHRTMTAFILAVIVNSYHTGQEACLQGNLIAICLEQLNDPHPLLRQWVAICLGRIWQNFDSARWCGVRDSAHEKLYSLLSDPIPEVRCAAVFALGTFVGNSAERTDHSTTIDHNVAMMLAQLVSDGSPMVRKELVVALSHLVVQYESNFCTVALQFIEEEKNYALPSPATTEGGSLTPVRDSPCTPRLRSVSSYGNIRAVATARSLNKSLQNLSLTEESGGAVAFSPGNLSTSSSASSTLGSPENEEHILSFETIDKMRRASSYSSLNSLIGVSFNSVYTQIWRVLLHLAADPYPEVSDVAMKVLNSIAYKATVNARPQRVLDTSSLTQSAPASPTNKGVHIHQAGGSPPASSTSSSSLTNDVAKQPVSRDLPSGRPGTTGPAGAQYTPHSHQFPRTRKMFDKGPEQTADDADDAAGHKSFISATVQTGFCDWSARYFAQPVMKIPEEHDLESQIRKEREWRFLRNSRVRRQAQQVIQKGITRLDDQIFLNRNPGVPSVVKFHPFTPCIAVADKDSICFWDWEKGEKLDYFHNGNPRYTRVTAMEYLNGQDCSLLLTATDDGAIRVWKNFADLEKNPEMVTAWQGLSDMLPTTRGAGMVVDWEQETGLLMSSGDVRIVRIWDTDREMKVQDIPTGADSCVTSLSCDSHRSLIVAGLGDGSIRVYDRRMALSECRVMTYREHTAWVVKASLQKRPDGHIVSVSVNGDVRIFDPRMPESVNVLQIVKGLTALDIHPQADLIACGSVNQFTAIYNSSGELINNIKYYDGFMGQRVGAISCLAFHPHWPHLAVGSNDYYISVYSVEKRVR
UniProt P52294: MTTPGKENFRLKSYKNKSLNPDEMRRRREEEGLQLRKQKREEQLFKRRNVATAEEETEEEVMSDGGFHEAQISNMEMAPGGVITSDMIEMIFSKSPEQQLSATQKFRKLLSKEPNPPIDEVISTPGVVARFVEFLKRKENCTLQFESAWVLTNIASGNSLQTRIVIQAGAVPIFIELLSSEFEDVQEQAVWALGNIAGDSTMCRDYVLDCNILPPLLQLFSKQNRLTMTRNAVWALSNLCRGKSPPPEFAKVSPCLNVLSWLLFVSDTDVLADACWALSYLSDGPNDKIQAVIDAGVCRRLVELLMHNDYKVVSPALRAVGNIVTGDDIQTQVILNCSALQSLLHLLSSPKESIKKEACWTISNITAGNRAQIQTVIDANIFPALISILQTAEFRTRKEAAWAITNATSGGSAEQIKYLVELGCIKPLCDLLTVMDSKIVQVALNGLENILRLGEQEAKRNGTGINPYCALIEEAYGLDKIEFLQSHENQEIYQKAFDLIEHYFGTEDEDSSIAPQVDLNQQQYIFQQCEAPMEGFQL
UniProt Q05655: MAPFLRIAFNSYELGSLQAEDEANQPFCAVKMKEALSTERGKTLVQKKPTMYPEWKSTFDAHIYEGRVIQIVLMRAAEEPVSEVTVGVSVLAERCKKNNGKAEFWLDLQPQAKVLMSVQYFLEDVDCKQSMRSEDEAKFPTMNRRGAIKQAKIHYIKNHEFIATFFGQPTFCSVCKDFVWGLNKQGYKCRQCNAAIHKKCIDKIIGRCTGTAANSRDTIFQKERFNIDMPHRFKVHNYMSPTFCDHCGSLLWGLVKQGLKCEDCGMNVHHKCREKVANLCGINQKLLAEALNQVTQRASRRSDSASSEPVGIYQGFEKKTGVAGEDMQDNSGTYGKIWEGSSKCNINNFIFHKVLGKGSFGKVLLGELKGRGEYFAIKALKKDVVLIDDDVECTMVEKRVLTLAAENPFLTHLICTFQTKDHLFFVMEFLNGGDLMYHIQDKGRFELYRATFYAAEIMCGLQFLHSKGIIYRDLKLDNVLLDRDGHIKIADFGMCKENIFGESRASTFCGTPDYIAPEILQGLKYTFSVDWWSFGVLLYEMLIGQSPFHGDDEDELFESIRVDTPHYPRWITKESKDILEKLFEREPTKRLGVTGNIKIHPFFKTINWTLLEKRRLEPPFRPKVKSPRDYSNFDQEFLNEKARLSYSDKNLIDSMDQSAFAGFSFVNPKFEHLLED

Legend:
[1] = target: rictor (endogenous, ion exchange fractions of Supplementary Fig. S1D) (UniProt Q6R327); test: co-elution in ion exchange chromatography fractions; endogenous proteins in ion exchange chromatography fractions previously shown to contain STAT1 and the mTOR-associated phosphatases; Supplementary Fig. S1D
[2] = target: raptor (endogenous, Supplementary Fig. S1D and S1E,F) (UniProt Q8N122); test: as above
V5-CFP-KPNA1 [3] = target: V5-CFP-KPNA1 (UniProt P52294); test: co-IP; anti-V5 antibody (5 μg, overnight, 4 °C) and Protein G Sepharose on HEK293T whole cell lysates (20 mM Tris pH 8.0, 0.3% CHAPS); washed with PBS 0.3% CHAPS; Western blot; for V5-CFP-KPNA1 cells without or with rapamycin 50 ng/ml, 30 min
V5-CFP-KPNA1 [4] = target: V5-CFP-KPNA1 (UniProt P52294); test: co-IP; anti-V5 immunoprecipitation from nuclear lysates of HEK293T cells expressing V5-CFP-KPNA1, rapamycin 50 ng/ml for 0 or 30 min; control IgG; Western blot
[5] = target: V5-CFP-PKCδ F425I (human) (UniProt Q05655); test: co-IP; anti-V5 antibody (5 μg, overnight, 4 °C) and Protein G Sepharose on HEK293T whole cell lysates (20 mM Tris pH 8.0, 0.3% CHAPS); washed with PBS 0.3% CHAPS; Western blot; for V5-CFP-KPNA1 cells without or with rapamycin 50 ng/ml, 30 min
V5-CFP-WT PKCδ (human) = V5-CFP-WT PKCδ (human) (UniProt Q05655); test: as above
[6] = target: KPNA1 (WT) linked to a complementary fragment of Venus yellow fluorescence protein (UniProt P52294); test: split reporter; protein fragment complementation assay: Venus YFP fragments VF1 and VF2 fused to the two proteins, co-transfected 1:1 in COS7; fluorescence (ex 512 nm, em 529 nm) per cell
[7] = target: PKCδ F425I linked to a complementary fragment of Venus yellow fluorescence protein (human) (UniProt Q05655); test: as above
[8] = target: PKCδ (WT) linked to a complementary fragment of Venus yellow fluorescence protein (human) (UniProt Q05655); test: as above

- binding [1]: no binding
- binding [2]: binds
Substance: PKCδ (endogenous, ion exchange fractions of Supplementary Fig. S1D) (from UniProt Q05655 1-676) (enzyme)

- binding (V5-CFP-KPNA1 [3]): binds
- binding (V5-CFP-KPNA1 [4]): binds
Substance: PKCδ (endogenous, HEK293T) (from UniProt Q05655 1-676) (enzyme)

- binding [5]: no binding
- binding (V5-CFP-KPNA1 [3]): binds
- binding (V5-CFP-WT PKCδ (human)): binds
- binding (V5-CFP-KPNA1 [4]): binds
Substance: raptor (endogenous, HEK293T) (from UniProt Q8N122 1-1335)

- binding [6]: binds
Substance: PKCδ (WT) linked to a complementary fragment of Venus yellow fluorescence protein (from UniProt Q05655 1-676) (enzyme)

- binding [7]: no binding
- binding [8]: binds
Substance: raptor (WT) linked to a complementary fragment of Venus yellow fluorescence protein (from UniProt Q8N122 1-1335)
